Whole data set: some 33,000 sequences, median “E-score (-0.5 to 0.5)” near -0.054, cut for the highest 2% near 0.39. The list shows a part of the results.
These sequences were tested against Ylr278c (UniProt Q05854) (assay: PBM E-score (8-mer binding enrichment) (E-score (-0.5 to 0.5)); higher = stronger / more preferred TF binding; most listed sequences are background and not binding sites). Settings: protein concentration: 200 nM; construct: GST-DNA-binding domain.
Outline: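 Yeast transcription factors, full-length or as DNA-binding domains, were expressed with a GST tag using PURExpress in vitro transcription/translation. At about 100-200 nM they were applied to universal all-10-mer Agilent arrays, double-stranded by primer extension on fresh or once-stripped slides. Fluorescent anti-GST detected bound protein, and masliner normalised the scans. E-scores for ungapped eight-base words, pooled with reverse complements, came from the Universal PBM Analysis Suite.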

Row | Sequence | PBM E-score
1 | CCCAGTGC | 0.0379
2 | GTTTTGCA | -0.113
3 | AGTTTCTG | -0.00765
4 | GAGCTTCA | 0.0127
5 | AGCTCTCA | 0.00229
6 | CGAACGAA | 0.03
7 | GTTTAGTA | -0.0474
8 | AAGCTCTG | -0.356
9 | CTAAGCAA | -0.182
10 | ACGAATTG | -0.117
11 | GCTGAGGA | -0.0366
12 | ACGGTTAG | -0.182
13 | TAACAGCA | -0.118
14 | AATCCGAG | 0.288
15 | AGGAATGC | -0.169
16 | AACAGCAC | 0.12
17 | GGCCTTGA | 0.0118
18 | TCTTTCAA | -0.0973
19 | CTTTGACC | 0.0264
20 | ACGTACCA | -0.256
21 | AATCTCTC | -0.0881
22 | GCATCGGA | 0.437
23 | CGGATTCA | 0.161
24 | GTAGTGGA | -0.0732
25 | ACCACTCG | -0.0078

Row | Sequence | PBM E-score
26 | CCCTCCTC | -0.257
27 | AGTCTTTG | -0.289
28 | ATAGCAGC | -0.218
29 | AAATAAGT | -0.199
30 | ACCCTAGC | -0.135
31 | ATACATAC | -0.218
32 | CGTCATGA | -0.0752
33 | ATACCGAG | 0.108
34 | CTCATTTC | -0.0723
35 | CGTGAACA | -0.0181
36 | AATTAGGC | 0.0429
37 | ATATGTGC | -0.0208
38 | ATTTGCCC | 0.197
39 | ACTGGTAC | 0.0574
40 | ACGAGGTC | -0.113
41 | ACCCGAAA | 0.143
42 | GGGTATTA | 0.0478
43 | CATAGAGG | -0.289
44 | GCGGGTAA | 0.0108
45 | AGCATTAT | -0.122
46 | GGCCGTAC | 0.144
47 | CAGTCATC | -0.0775
48 | CCACCTGC | -0.15
49 | CCTTTCTC | -0.137
50 | CGTACCGA | 0.0386

Row | Sequence | PBM E-score
51 | ACAAACAA | -0.0979
52 | CTGCATCC | -0.029
53 | ATATATTC | 0.168
54 | CCTAATTA | -0.112
55 | CCCCCATC | -0.159
56 | GTCCTTAA | -0.225
57 | AATCCGGC | 0.425
58 | TAGGTCAA | -0.286
59 | CGTAATAG | -0.152
60 | ATAGTCTA | -0.141
61 | TCCGTCCA | 0.292
62 | ACTACCTG | -0.0406
63 | GAGTGGCA | -0.00206
64 | AGTCTCAA | -0.118
65 | GTACACAC | -0.0886
66 | CAGCCACG | 0.00744
67 | ACAAGGCA | -0.157
68 | GTGGCGGA | 0.35
69 | CCTTGGAA | -0.0587
70 | AGGATACA | -0.226
71 | AAACTCTT | -0.269
72 | GACAAGGA | -0.0863
73 | CTAGTGCC | 0.0373
74 | AGAAATCC | 0.269
75 | AGGGATTA | -0.223

Row | Sequence | PBM E-score
76 | AATCCGTC | 0.297
77 | CGAAGAAG | 0.0474
78 | ACCCAAGC | -0.158
79 | GAACGGGA | 0.0884
80 | CCTGAGCA | -0.141
81 | ACTACCAC | -0.0486
82 | ATTGAGAA | -0.0303
83 | ACCGTCGA | -0.112
84 | GGCGTAAA | 0.136
85 | ACCTGTCG | 0.0945
86 | CGTCGAAG | -0.128
87 | CGTCCATC | 0.145
88 | CGAAGATC | -0.0407
89 | AGTGGTAA | -0.139
90 | TGACTAAA | -0.0819
91 | CTAAATAC | -0.0339
92 | CTTGATGA | 0.0282
93 | TGGGCCCA | 0.026
94 | TAACCAAA | -0.0596
95 | AAAAGGCT | -0.0866
96 | ACTAGGTA | -0.206
97 | CCGACATA | 0.179
98 | AACTACAT | -0.161
99 | ACTTCTAT | -0.216
100 | CCTCCAGG | -0.249

Row | Sequence | PBM E-score
101 | ATGCACGA | -0.138
102 | CACAAACC | -0.0749
103 | CTCAGGAC | -0.159
104 | ACATTCCT | -0.0674
105 | CATCTCTA | -0.17
106 | AAGAACCG | 0.158
107 | GACCGCAA | 0.176
108 | GCGGTTCA | 0.0173
109 | GCAACCTA | -0.299
110 | CCCCCAAG | -0.267
111 | AGCCGAAC | 0.138
112 | CCAGCACG | -0.15
113 | GCCAAAAA | -0.158
114 | ATAAACAC | -0.0977
115 | CGCCGATC | 0.377
116 | TGGGACAA | -0.11
117 | ACGAACAG | -0.115
118 | ACGATCTG | -0.168
119 | AGCAGGGC | -0.124
120 | GCACCGCC | 0.191
121 | GCATGAAA | -0.201
122 | CGCCCTGA | -0.0097
123 | CTGGTATC | -0.104
124 | AAGACATT | -0.0452
125 | GATCGGTA | 0.265

Row | Sequence | PBM E-score
126 | ACATGGAG | -0.0163
127 | GAGCTCCA | 0.0103
128 | ATAATTAA | 0.0921
129 | AGCATCAC | -0.21
130 | ACAAGTGT | -0.209
131 | CGTCAGTA | -0.231
132 | AAAACGAG | -0.146
133 | GAGGGAGC | -0.108
134 | CCGGCGAG | 0.353
135 | AGGTTTAA | 0.0267
136 | TGATATAA | -0.223
137 | ATCCCCTG | -0.16
138 | ACTGCTTG | -0.0481
139 | ACTACAGA | 0.00882
140 | ATCGCGCA | 0.00622
141 | GAACACAA | -0.142
142 | GTCATCAC | -0.306
143 | GCCTCTCC | -0.0795
144 | AATATTAG | -0.202
145 | ATGCTGAA | -0.0562
146 | AAGCCATC | 0.0394
147 | ATTAGTTA | 0.0343
148 | CAGCCGAC | 0.0597
149 | TCCTTAGA | -0.155
150 | CACGTCCA | -0.286

Row | Sequence | PBM E-score
151 | AGACCTGA | -0.13
152 | ATTCAGTG | 0.0848
153 | AGACTATC | -0.248
154 | TAGGGAGA | -0.0303
155 | AGGCGTGC | -0.0476
156 | ACAGTAGG | -0.2
157 | AGCGCACG | 0.0656
158 | AGAGGATG | -0.0287
159 | AACACAGG | -0.137
160 | ACCTCACG | -0.195
161 | CTAATGCC | 0.126
162 | GGTATCGA | -0.0372
163 | CGTGAACC | 0.0242
164 | AGTTCGAA | 0.0146
165 | CTTCGGTA | 0.0846
166 | GCCTCTTA | -0.109
167 | GTAACAAA | 0.00209
168 | CACTGACC | 0.0158
169 | CTCTCAAC | -0.0992
170 | CGATTACC | 0.133
171 | AGGCTAAG | -0.206
172 | AGACAAAT | -0.121

Reference: the supplement of paper PMC3334620
